# Source: the RNAGym collection of RNA variant scans (doi:10.7554/elife.90254)
# Read counts are not given, so values of variants with three or more changes are uncertain.
# B1: OR4K15 (parent)
# chain: GUUAACGGUCAUAGGCCAUGGAAACUAGGAGCACCAUUUCGCUGCCAGUGAAGAAAUGAACAAAGAAAAUCUGGGCCAGGCAGGCAUCAAAAGAAAUAGUCUUGCGCUCAACCAGAAAGUCUGUAAUCAUUUUAAGGGUA
# Variants of: B1
# Assay: self-cleavage, relative activity (ratio to wild type); higher = more cleavage; in vitro, sequencing; the parent is a self-cleaving ribozyme
row,Variant,self-cleavage
1,GUUAACGGUCAUAGGCCAUGGAAACAAGGAGCACCAUUUCGCUGCCAGUGAAGGAAUGAACAAAGAAAAUCUGGGCCAGGCAGGCAUCAAAAGAAAUAGUCUUGCGCUCAACCGGAGAGUCUGUAAUCAUUUUAAGGGUA [U26A A54G A114G A117G],0.44
2,GUUAACGGUCAUAGGCCAUGGAAACUAGGAGCACCGUCACGCUGCCAGUGAAGAAAUGAACAAAGAAAAUCUGGGCCAGGCAGGCAUCAAAAGAAAUGGUCUUGCGCUCAACCAGAAAGUCUGUAAUCAUUUUAAGGGUA [A36G U38C U39A A98G],1.36
3,GUUAACGGUCAUAGGCCAUGGAAACUAGGAGCACCACUUCGCUGCCAGCGAAGAAAUGAACAAAGAAAUUCUGGGCCGGGCAGGCAUCAAAAGAAAUAGUCUUGCGCUCAACCAGAAAGUCUGUAAUCAUUUUAAGGGUA [U37C U49C A69U A78G],0.22
4,GUUAACGGUCAUAGGCCAUGGAAACUAGGAGCACCACUUCGCUGCCAGUGAAGAAAUGAACAAAGAAAAUCUGGGCCAGGCAGGCAUCAAAAGAAAUAGGCUUGCGCUCAACCAGAAAGUCUGUAAUCAUUUUAGGGGUA [U37C U100G A135G],2.56
5,GUUAACGGUCAUAGGCCAUGGAAACUAGGAGCACCAUCUCGCUGCCAGUGAAGAAAUGAACAAAGAAAAUCUGGGCCAGGCAGGCAUCAAAAGAAAUAGUCUUGCGCUCAACCAGGAAGUCUGUAAUCAUUUUGAGGGUA [U38C A116G A134G],0.64
6,GUUAACGGUCAUAGGCCAUGUAAACUAGGAGCACCAUUCCGCUGCCAGUGAAGAAAUGAACAAAGAAAAUCUGGGCCAGGCAGGCAUCAAAAGAAUUAGUCUUGCGCUCAACCAGAAAGCCUGUAAUCAUUUUAAGGGUA [G21U U39C A96U U120C],1.27
7,GUUAACGGUCAUAGGCCAUGGAAACUAGGAGCACCAUAUCGCUGCCAGUGAAGAAAUGAACAAAGAAGAUCUGGGCCAGGUAGGCAUCAAAAGAAAUAGUCUUGUGCUCAACCAGAAAGUCUGUAAUCAUUUUAAGGGUA [U38A A68G C81U C105U],0.03
8,GUUAACGGUCAUAGGCCAUGGAAACUAGGAGCACCAUUUCGCUGCCAGUGAACAAAUGAACAAAGGAAAUCUGGGCCAGGCAGGCAUCAAAAGAAAUAGUCUUGCGCUCAACCAGAAAGUCUGUAAUCAUUUUAAGGGCA [G53C A66G U139C],2.55
9,GAUAACGGUCAUAGGCCAUGGAAACUAGGAGUACCAUUUCGCUGCCAGUGAAGAAAUGAACAAGGAAAAUCUGGGCCAGGCAGGCAUCAAAAGAAAUAGUCUUGCGCUCAACCAGAAAGCCUGUACUCAUUUUAAGGGUA [U2A C32U A64G U120C A126C],0.65
10,GUUAACGGUCAUAGGCCAUGGAAACUAGGGGCACCAUUUCGCUGCCGGCGAAGAAAUGAACAAAGAAUAUCUGGGCCAGGCAGGCAUCAAAAGAAAUAGUCUUGCGCUCAACCAGAAGGUCUGUAAUCACUUUAAGGGUA [A30G A47G U49C A68U A118G U130C],0.26
11,GUUAGCGGACACAGGCCAUGGAAACUAGGAGCACCAUUUCGCUGCCAGUGAAGAAGUGAACAAAUAAAAUCUGGGCCAGGCAGGCAUCAAAAGAAAUAGUCUUGCGCUCAACCACAAAGUCUGUAAUCAUUUUAAGGGUA [A5G U9A U12C A56G G65U G115C],0.04
12,GUUAACGGUCAAAGGCCAUGGAAACUAGGAGCACCAUCUCGCUGCCAGUGAAGAAAUGAACAAAGAAAAUCUGGGCCAGGCAGGCAUCAAAAGAAAUAGUCUUGCGCUCAACCUGAAAGUCUGUAAUCAUUUUAAGGGUA [U12A U38C A114U],0.09
13,GUUAACGGUCAUAGGCCAUGGAAACUAGGAGCGCCAUUUCGCUGCCAGUGAAGAAAUGAACAAAGAAAAUCUGGGCCUGGCAGGCAUCGAAAGAAAUAGUCUUGCGCUCAACCAGAAAGUCUGUAAUCAUUUUAGGGGUA [A33G A78U A89G A135G],0.12
14,GUUAACGGUCAUAGGCCAUGGGAACUAGGAGCACCACUUCGCAGCCAGUGAAGAAAUGAACAAAGAAAAUCUGGGCCAGGCAGGCAUCAAAAGAAAUAGUCUUGCGCUCAACCAGAAAGUCUGUAAUCAUUUUAAGGGUA [A22G U37C U43A],1.54
15,GUUAACAGUCAUAGGCCAUGGAAACUAGGAGCACCAUUUCGCUGCCAGUGAAGAAAUGAACAAAGAAAAUCUGGGCCAGGCAGGCAUCAGAAGGAAUAGUCUUGCGCUCAACCAGAAAGUCUGUAAUCAUUUUAAGGGUA [G7A A90G A94G],0.77
16,GUUAACGGUCAUAGGCCAUGGAAACUAGGAGCACCAUUUCGCUGCCAGUGAAGAAAUGAACAAAGAAAAUCUGGGCCGGGCAGGCGUCAAAAGAAAUAGUCUUGCGCUCAACCAGAAAGUCUGUAAUCGUUUUAAGGGUA [A78G A86G A129G],0.23
17,GUUAACGGUCAUAGGCCAUGGAAACUAGGAGCACCAUUUCGCUGCCAGUGAAGGAAUGAACAAAGAAAAUCUGGGCCGGGCAGGCAUCAAAAGAAAUAGUCUCGCGCUCAACCAGAAGGUCUGUAAUCAUUUUAAGGGUA [A54G A78G U103C A118G],0.02
18,GUUAACGGUCAUAGGCCAUGGAAACUAGGAGCACCAUUUCGCUGCCAGUGAGGAAAUGAACGAAGAAAAUCUGGGCCAGGCAGGCAUCAAAAGAAAUAGUCUUGCGCUCAACCAGAUAGUCUGUAAUCAUUUUAAGGGUA [A52G A62G A117U],0.69
19,GUUAACGGUCAUAGGCCAUGGAAUCUAGGAGCACCAUUUCGCUGCCAGUGAAGAAAUGAACAAAGAAAAUCUGGGCCAGGCAGGCAUCAAAAGAAAUAGUCUUGCGCUCAACCAGAAGGUCUGUAAUCAUUCUAAGGGUC [A24U A118G U132C A140C],1.04
20,GUUAACGGUCAUAGGCCAUGGAAACUAGGAGCACCAUUUCGCUGCCCGUGAAGAAAUGAACAAAGAAAAUCUGGGCCAGGCAGGCAUCAAAAGAAACAGUCUUGCGCCCAACCAGAAAGUCUGUAAUCAUUUUAAGGGUA [A47C U97C U108C],0.01
21,GUUAACGGUCAUAGGCCAUGGAAACUAGGAGCACCAUUUCGCUGCCAGGGAAGAAAUGAACAAAGAAAAUCUGGGCCAGGCAGGCAUCAAAAGAAAUAGUCUUGCGCUCAACCGGAAAGUCUGUAACCAUUUUAAGGGCA [U49G A114G U127C U139C],0.04
